SMILES strings stand for the structures. In all, about 16,000 compounds went through this assay and about 120 (0.75%) were called active. Another 4% or so got no clear call; they are omitted. Calls follow the shape of the dose curve; as a rule, active = well fitted inhibition curve with a large enough effect; inconclusive = small, poorly fitted or top-dose-only effect; inactive = no such curve, though single readings can be large or run the other way. Some of the results follow. Where a SMILES comes first, the peptide text is derived from it.

In the experiment the target is Rap guanine nucleotide exchange factor 3 (Homo sapiens) (UniProt O95398). Description: Validation qHTS for antagonist of cAMP-regulated guanine nucleotide exchange factor 3 (EPAC1).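 Also: plate controls were DMSO for no effect and ATA control for full effect; nearly all actives have a fitted effect of over 75% in size.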 The following applies: EPAC1 Rap1B-BODIPY-GDP exchange, fluorescence; activity change, negative = inhibition: at the top concentration. In short, it runs like this: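 Nucleotide exchange followed as fluorescence loss when BODIPY-GDP leaves Rap1B (480 nm excitation, 540 nm emission), read at 5 min intervals over 30 min. Reaction: 100 nM EPAC1, 250 nM RAP1B-BODIPY-GDP, 50 uM GDP; ATA and DMSO define normalization.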
Sequence of UniProt O95398 (O95398 whole entry, looked up): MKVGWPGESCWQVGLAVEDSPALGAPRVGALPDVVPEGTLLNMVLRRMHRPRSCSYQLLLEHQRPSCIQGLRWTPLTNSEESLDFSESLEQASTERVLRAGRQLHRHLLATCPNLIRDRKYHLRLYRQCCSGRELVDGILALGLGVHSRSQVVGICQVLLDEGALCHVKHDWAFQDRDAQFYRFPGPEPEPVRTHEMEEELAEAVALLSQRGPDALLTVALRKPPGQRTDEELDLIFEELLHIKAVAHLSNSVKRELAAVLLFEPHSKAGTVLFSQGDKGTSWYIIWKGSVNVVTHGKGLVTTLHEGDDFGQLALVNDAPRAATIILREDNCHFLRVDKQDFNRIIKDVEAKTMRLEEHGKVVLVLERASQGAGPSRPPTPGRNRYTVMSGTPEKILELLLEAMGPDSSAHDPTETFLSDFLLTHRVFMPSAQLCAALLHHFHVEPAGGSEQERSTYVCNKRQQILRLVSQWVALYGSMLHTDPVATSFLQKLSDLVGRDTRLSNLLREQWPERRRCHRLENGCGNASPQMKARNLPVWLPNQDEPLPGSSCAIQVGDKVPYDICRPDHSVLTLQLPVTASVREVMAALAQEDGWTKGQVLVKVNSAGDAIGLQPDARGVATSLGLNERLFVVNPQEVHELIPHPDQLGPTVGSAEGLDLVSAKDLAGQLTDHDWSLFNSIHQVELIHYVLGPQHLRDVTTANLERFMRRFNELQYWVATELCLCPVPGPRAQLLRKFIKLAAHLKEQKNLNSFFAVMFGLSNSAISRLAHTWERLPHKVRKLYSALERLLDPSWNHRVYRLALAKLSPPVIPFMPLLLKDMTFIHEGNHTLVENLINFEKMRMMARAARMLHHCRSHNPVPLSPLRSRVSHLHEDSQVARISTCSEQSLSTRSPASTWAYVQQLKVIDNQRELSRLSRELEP
`CC[C@@H](CO)NC(=O)[C@H]1C=C2c3cccc4[nH]cc(c34)C[C@H]2N(C)C1`: the “activity change, negative = inhibition” value was inactive: 4.25%. Take `COc1ccc(OC)c(CC(C)N)c1` (stereo not given): the “activity change, negative = inhibition” value is inactive: 23% [at 320 µM]. Then `CC(C(=O)OC1CC2CCC(C1)N2C)c1ccc(Br)cc1` (stereo not given), with inactive: 11.5%; and `O=C1CCCC2C3CC(CN12)C1CCCCN1C3` (stereo not given), with inactive: -3.72%. For `N[C@H](C(=O)O)c1cc(=O)[nH]o1`, the “activity change, negative = inhibition” value was inactive: -2.88%. Then `CCCCCl`, with inactive: 3.8%. For `COC(=O)[C@]1(C)CC[C@@]2(C)CC[C@@]3(C)C4=CCc5c(cc(O)c(O)c5C)[C@]4(C)CC[C@@]3(C)C2C1` (stereo not given in full) the value was inactive: -8.3%; for `CN1C(=S)CN=C(c2ccccc2)c2cc(Cl)ccc21`, inactive: 1.8%.

Take `NC(=O)[C@@H]1CCCN1C(=O)[C@H](Cc1ccccc1)NC(=O)[C@@H]1CCCN1C(=O)[C@@H](N)Cc1ccc(O)cc1` (H-YPFP-NH2): the activity change, negative = inhibition was inactive: 22.3% [at 15.3 µM]. Then `COc1ccc(C(=O)N2CCCC2=O)cc1`, with “inactive”; and `CC(N)[C@H](O)c1ccccc1` (stereo not given in full), with inactive: 22.5%. Then `C=CCN1CCc2cccc3c2[C@H]1Cc1ccc(O)c(O)c1-3`, with inactive: 7.8% [at 75.8 µM]; and `Cc1[nH]c2ccc(O)cc2c1CCN`, with “inactive”. Then `COc1nc(NC(C)C)nc(NC(C)C)n1`, with inactive: -3.88%; and `O=C(c1ccncc1)N1CCC[C@@]2(CCN(Cc3nccs3)C2)C1`, with inactive: 12.9%; and `COc1cccc(C(=O)CCN[C@@H](C)[C@H](O)c2ccccc2)c1`, with inactive: 27.4%.

Regarding `C#CCOC(C(=O)OCCN(C)C)(c1ccccc1)c1ccccc1`, the “activity change, negative = inhibition” value is inactive: 12.6%. For `CCC1(c2ccccc2)C(=O)NC(=O)N(C(=O)c2ccccc2)C1=O` (stereo not given) the value was inactive: 3.79%; for `CCS(=O)(=O)Nc1cccc(C(=C2CCCCC2)c2cnc[nH]2)c1`, inactive: -4.88% [at 75.8 µM]; for `CCCCOC(=O)c1ccccc1C(=O)OCc1ccccc1`, inactive: 42.1% [at 320 µM].

Regarding `CC[C@@H](C(N)=O)N1CCCC1=O`, the “activity change, negative = inhibition” value was inactive: -2.55% [at 75.8 µM]. For `NCC(O)c1cc(O)c(O)cc1F` (stereo not given) the value was inactive: -9.59% [at 75.8 µM]; for `O=C(O)CCCc1ccc(N(CCCl)CCCl)cc1`, “inactive”.

As for `O=C(Nc1cccc(F)c1)N1CCC2(CC1)CCN(C(=O)Oc1ccccc1)CC2`, the “activity change, negative = inhibition” value was inactive: 2.49%. Consider `O=C(c1cnccn1)N1CCC2(CC1)CN(Cc1ccncc1)C2`, for which the “activity change, negative = inhibition” value was inactive: 17.5%. Take `c1ccc2c(c1)OC[C@@H](C1=NCCN1)O2`: the “activity change, negative = inhibition” value was inactive: 9.42%.

With `OCC1OC(n2cnc3cc(Cl)c(Cl)cc32)C(O)C1O` (stereo not given), the “activity change, negative = inhibition” value was inactive: -9.9%. For `N#Cc1ccc(CN2CC3(CCNCC3)C2)cc1` the value was inactive: 3.42%.

With `CN1C(=O)CCS(=O)(=O)[C@H]1c1ccc(Cl)cc1`, the “activity change, negative = inhibition” value was inactive: -4.72%. For `NCC(CS(=O)(=O)O)c1ccc(Cl)cc1` (stereo not given), the “activity change, negative = inhibition” value is inactive: 22.8%. Then `C[C@H]1[C@@H]2Cc3ccc(O)cc3[C@@]1(C)CCN2C`, with inactive: 29.3% [at 606 µM]; and `COc1cc2c(cc1OC)[C@@H]1C(=O)c3ccc4c(c3OC1CO2)CC(C(C)C)O4` (stereo not given in full), with inactive: -8%; and `N#C/C(=C\c1cccc(O)c1)C(=O)O`, with inactive: 19.2%. For `COP(=S)(OC)Oc1ccc(SC)c(C)c1` the value was “inactive”. Then `CN(CCc1ccc(Cl)c(Cl)c1)[C@H]1CCCC[C@H]1N1CCCC1`, with inactive: -5.35%. Consider `O=c1[nH]c2ccccc2n1CCCN1CCC(n2c(=O)[nH]c3cc(Cl)ccc32)CC1`, for which the activity change, negative = inhibition result was “inactive”. Consider `C[N+](C)(C)CC(=O)O`, for which the “activity change, negative = inhibition” value was inactive: 12.4%.

In the case of `c1ccc(C2(N3CCCC3)CCCCC2)cc1`, the “activity change, negative = inhibition” value was inactive: 4.86%. Then `O=C(O)COc1nc(Cl)c(Cl)cc1Cl`, with inactive: 27.6% [at 320 µM]; and `CC1CCCC(=O)CCC/C=C/c2cc(O)cc(O)c2C(=O)O1` (stereo not given), with inactive: 7.82%. Then `CN1C[C@H](CNC(=O)OCc2ccccc2)C[C@H]2c3cccc4c3c(cn4C)C[C@@H]21`, with inactive: -0.764%. For `COC1C(O)C(OC2CC[C@]3(C=O)C4C(OC(C)=O)C[C@@]5(C)C(C6=CC(=O)OC6)CC[C@]5(O)C4CC[C@]3(O)C2)OC(C)C1OC(C)=O` (stereo not given in full) the value was inactive: 1.5%.

`C#C[C@]1(O)CC[C@H]2[C@@H]3CCC4=CC(=O)CC[C@]4(C)[C@H]3CC[C@@]21C`: the activity change, negative = inhibition result was “inactive”. Then `COP(=S)(OC)SCn1nnc2ccccc2c1=O`, with inactive: 7.86%; and `C[C@H]1CC[C@@H]2[C@@H](C)[C@H]3[C@H](C[C@H]4[C@@H]5CC=C6CC(O[C@@H]7O[C@H](CO)[C@H](O)[C@H](O[C@@H]8O[C@H](CO)[C@@H](O)[C@H](O)[C@H]8O)[C@H]7O[C@H]7O[C@@H](C)[C@H](O)[C@@H](O)[C@H]7O)CC[C@]6(C)[C@H]5CC[C@]34C)N2C1` (stereo not given in full), with inactive: 8.02%; and `CCCCC[C@@H](O)C1C(=O)OC(C)[C@H](O)/C=C/C=C/C=C/C=C/C=C(\C)C(O)C(O)C(O)C[C@H](O)C[C@H](O)C[C@H](O)C[C@H](O)C[C@@H]1O` (stereo not given in full), with “inactive”. `CC(C)[N+](C)(CCC(C(N)=O)(c1ccccc1)c1ccccc1)C(C)C`: the activity change, negative = inhibition entry was “inactive”. For `CCC(Oc1ccc(Cl)cc1)C(=O)OC1CC2CCC(C1)N2C` (stereo not given) the value was inactive: 33%; for `COc1ccc2c(c1)C13CCCCC1C(C2)N(C)CC3` (stereo not given), inactive: 18.6% [at 75.8 µM]. Consider `CC(=O)OC1CC(OC(C)=O)[C@]2(C)C(CC(OC(C)=O)[C@]3(C)C2CC[C@@]2(C)C(c4ccoc4)C(=O)C4O[C@]432)C1(C)C` (stereo not given in full), for which the “activity change, negative = inhibition” value is inactive: -18.6%.

The values above are taken from PubChem BioAssay AID1645882 (National Center for Advancing Translational Sciences (NCATS), 2021).
